These are yes or no findings as the source states them, for the method shown. For part of these data: Binding seen in cells or lysates may run through a third protein. Some results given as binding are weak or reduced against the parent protein; the word gives no strength. For part of these data: Where a sequence is shown, tags or fusion partners need not be part of it. Each block holds one molecule with its values, some of them ahead of it.
Key:
[1] = molecular target: T1, dysbindin-1C (yeast two-hybrid fusion) (UniProt Q91WZ8); assay: two-hybrid; yeast two-hybrid interaction assay (Supplementary Fig. 6D)
T1 sequence: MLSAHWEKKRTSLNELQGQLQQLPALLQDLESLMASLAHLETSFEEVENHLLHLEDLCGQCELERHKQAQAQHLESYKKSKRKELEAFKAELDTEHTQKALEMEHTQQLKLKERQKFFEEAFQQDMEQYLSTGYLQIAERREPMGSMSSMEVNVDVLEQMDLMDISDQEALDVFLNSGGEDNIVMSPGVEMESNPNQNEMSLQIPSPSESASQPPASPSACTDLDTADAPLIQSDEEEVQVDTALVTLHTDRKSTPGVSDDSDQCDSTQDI

Amino acid sequences for entries named in this document (tags omitted).
UniProt O00429: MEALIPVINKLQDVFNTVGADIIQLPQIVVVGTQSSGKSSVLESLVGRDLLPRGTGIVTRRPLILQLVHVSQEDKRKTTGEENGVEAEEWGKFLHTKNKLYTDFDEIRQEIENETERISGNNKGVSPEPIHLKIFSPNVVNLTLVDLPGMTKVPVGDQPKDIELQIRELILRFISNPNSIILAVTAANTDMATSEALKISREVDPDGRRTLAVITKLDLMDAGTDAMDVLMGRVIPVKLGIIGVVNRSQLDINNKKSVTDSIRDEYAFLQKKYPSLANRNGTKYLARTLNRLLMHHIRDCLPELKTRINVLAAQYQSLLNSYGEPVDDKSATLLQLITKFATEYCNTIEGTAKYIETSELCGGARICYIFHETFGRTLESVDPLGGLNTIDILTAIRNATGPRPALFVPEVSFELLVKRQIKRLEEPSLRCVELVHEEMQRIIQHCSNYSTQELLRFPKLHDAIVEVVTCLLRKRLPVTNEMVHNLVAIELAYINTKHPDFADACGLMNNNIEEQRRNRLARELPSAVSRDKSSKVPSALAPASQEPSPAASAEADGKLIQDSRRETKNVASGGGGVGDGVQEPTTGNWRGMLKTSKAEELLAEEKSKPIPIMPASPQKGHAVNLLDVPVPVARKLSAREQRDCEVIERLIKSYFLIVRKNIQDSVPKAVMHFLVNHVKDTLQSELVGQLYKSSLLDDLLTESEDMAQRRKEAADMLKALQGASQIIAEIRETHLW
UniProt O35303: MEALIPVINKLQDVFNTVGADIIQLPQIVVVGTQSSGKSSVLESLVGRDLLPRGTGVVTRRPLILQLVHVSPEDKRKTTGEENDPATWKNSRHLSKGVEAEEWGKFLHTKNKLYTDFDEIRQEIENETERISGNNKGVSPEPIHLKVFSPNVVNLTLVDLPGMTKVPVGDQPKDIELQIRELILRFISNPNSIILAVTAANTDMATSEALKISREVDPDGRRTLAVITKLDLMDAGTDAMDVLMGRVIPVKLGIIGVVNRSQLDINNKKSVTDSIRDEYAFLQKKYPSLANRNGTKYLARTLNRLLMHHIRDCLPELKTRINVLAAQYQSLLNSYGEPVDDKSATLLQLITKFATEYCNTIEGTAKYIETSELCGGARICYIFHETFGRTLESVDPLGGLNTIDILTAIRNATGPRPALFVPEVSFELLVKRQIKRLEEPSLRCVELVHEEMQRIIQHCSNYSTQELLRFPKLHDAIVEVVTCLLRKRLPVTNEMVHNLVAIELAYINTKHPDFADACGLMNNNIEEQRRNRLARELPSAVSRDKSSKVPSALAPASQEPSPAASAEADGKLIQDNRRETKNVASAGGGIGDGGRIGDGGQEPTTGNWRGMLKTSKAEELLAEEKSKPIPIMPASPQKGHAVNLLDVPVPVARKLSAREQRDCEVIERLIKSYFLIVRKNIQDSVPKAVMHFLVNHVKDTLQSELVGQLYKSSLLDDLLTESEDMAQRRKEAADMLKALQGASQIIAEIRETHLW
UniProt Q8K1M6: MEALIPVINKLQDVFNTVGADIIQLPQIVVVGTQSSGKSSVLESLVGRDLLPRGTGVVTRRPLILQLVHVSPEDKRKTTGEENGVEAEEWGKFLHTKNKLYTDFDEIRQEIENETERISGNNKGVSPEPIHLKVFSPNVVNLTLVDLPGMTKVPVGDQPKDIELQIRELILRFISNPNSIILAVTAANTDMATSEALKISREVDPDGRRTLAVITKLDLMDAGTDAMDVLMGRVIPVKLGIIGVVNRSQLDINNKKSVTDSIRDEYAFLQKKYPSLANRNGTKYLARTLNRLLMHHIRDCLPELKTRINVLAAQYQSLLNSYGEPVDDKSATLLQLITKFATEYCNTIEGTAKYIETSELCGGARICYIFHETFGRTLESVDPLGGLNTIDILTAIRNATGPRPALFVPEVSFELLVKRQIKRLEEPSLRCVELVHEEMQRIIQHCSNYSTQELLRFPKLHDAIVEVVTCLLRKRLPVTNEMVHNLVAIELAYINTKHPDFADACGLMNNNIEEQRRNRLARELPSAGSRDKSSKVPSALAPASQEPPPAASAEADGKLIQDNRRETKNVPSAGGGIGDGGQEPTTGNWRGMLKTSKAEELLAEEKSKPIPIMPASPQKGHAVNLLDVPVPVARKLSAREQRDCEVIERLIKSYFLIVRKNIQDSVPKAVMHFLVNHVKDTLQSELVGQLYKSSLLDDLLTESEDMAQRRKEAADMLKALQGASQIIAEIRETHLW
UniProt Q9NQG6: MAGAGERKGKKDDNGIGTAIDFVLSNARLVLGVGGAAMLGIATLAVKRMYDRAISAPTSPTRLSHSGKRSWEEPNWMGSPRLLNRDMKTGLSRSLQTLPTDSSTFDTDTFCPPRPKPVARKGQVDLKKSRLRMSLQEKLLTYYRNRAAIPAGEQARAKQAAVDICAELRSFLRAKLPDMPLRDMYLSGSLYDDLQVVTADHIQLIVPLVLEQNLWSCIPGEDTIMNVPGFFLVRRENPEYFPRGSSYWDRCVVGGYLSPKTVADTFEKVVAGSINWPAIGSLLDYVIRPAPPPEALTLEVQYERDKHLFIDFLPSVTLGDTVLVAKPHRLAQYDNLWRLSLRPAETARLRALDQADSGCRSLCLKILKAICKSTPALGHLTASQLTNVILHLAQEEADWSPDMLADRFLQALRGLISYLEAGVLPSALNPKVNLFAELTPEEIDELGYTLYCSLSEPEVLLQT

[2] = molecular target: Drp1 (yeast two-hybrid fusion) (UniProt O00429); assay: as above
HA-tagged dysbindin-1C [3] = molecular target: T2, HA-tagged dysbindin-1C (UniProt Q91WZ8); assay: co-IP; HEK-293 cells transfected with designated plasmids, with the N-terminal region of dysbindin-1A; immunoprecipitation with the anti-HA antibody (Fig. 4K)
T2 sequence: T1 sequence

HA-tagged dysbindin-1C [4] = molecular target: T2, HA-tagged dysbindin-1C; assay: co-IP; HEK-293 cells transfected with YFP-Drp1 along with HA-tagged dysbindin-1C or -1A; immunoprecipitation with an anti-HA antibody 2 days later; blot for Drp1 (Fig. 4G)
HA-tagged dysbindin-1A = molecular target: T3, HA-tagged dysbindin-1A (UniProt Q91WZ8); assay: as above
T3 sequence: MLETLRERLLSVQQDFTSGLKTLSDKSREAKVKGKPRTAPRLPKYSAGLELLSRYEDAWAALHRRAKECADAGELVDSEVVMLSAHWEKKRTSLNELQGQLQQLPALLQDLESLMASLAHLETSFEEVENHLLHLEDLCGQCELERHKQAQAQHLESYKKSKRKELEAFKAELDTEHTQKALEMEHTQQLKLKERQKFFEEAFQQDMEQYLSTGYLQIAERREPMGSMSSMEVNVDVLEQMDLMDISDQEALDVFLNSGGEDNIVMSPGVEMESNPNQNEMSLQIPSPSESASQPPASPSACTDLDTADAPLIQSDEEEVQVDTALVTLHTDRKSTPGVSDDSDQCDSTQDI

[5] = molecular target: T4, HA-dysbindin-1A (lentivirus, in cultured hippocampal neurons) (UniProt Q91WZ8); assay: co-IP; cultured hippocampal neurons transduced with lentivirus expressing HA-dysbindin-1C or -1A; immunoprecipitation with an anti-HA antibody; endogenous Drp1 detected (Fig. 4H)
T4 sequence: T3 sequence

[6] = molecular target: T5, HA-dysbindin-1C (lentivirus, in cultured hippocampal neurons) (UniProt Q91WZ8); assay: as above
T5 sequence: T1 sequence

[7] = molecular target: endogenous Drp1 of cultured hippocampal neurons (not stated (rat or mouse neurons cultured)) (UniProt O35303); assay: cross-linking; total lysates and mitochondrial fraction of cultured hippocampal neurons transduced with lentivirus (vector, dysbindin-1C, dysbindin-1A), crosslinked and separated by gel electrophoresis, blot for Drp1 monomer and higher-order oligomers; also after KCl (50 mM)
[8] = molecular target: endogenous Drp1 of mouse hippocampus (mouse (endogenous in hippocampus)) (UniProt Q8K1M6); assay: cross-linking; total lysates and mitochondrial fraction of the hippocampus or hippocampal slices of WT and sdy mice, crosslinked and separated by gel electrophoresis, blot for Drp1 monomer and higher-order oligomers; also after oligomycin (10 uM, 30 min) or CCH
HA-tagged dysbindin-1C [9] = molecular target: T2, HA-tagged dysbindin-1C; assay: co-IP; HEK-293 cells transfected with HA-tagged dysbindin-1C; immunoprecipitation with an anti-HA antibody 3 days later; blots for Mid49, Mid51 and Mff (Fig. 4L)
[10] = molecular target: endogenous Drp1 of HEK-293 cells (human (endogenous in HEK-293)) (UniProt O00429); assay: co-IP; HEK-293 cells transfected with the dysbindin-1C or dysbindin-1A plasmid or vector; endogenous Drp1 pulled down with the Drp1 antibody; blots for Mid49, Mid51 and Mff (Fig. 4M, N)
[11] = molecular target: endogenous Drp1 of mouse hippocampus (mouse (endogenous in hippocampus)) (UniProt Q8K1M6); assay: co-IP; lysate of the hippocampus of WT mice; immunoprecipitation with an anti-Drp1 antibody (Fig. 4I)

Molecule: Drp1 (yeast two-hybrid fusion) (from UniProt O00429 1-736)
binding [1]: binds

Molecule: mitochondrial dynamics protein of 51 kDa (Mid51), in HEK-293 cells (from UniProt Q9NQG6 1-463)
binding (HA-tagged dysbindin-1C [9]): binds

B2: Mff (yeast two-hybrid fusion) (protein, UniProt Q9GZY8 1-342)
chain: MSKGTSSDTSLGRVSRAAFPSPTAAEMAEISRIQYEMEYTEGISQRMRVPEKLKVAPPNADLEQGFQEGVPNASVIMQVPERIVVAGNNEDVSFSRPADLDLIQSTPFKPLALKTPPRVLTLSERPLDFLDLERPPTTPQNEEIRAVGRLKRERSMSENAVRQNGQLVRNDSLWHRSDSAPRNKISRFQAPISAPEYTVTPSPQQARVCPPHMLPEDGANLSSARGILSLIQSSTRRAYQQILDVLDENRRPVLRGGSAAATSNPHHDNVRYGISNIDTTIEGTSDDLTVVDAASLRRQIIKLNRRLQLLEEENKERAKREMVMYSITVAFWLLNSWLWFRR
binding [1]: no binding

B3: Mid49 (yeast two-hybrid fusion) (protein, UniProt Q96C03 1-454)
chain: MAEFSQKRGKRRSDEGLGSMVDFLLANARLVLGVGGAAVLGIATLAVKRFIDRATSPRDEDDTKADSWKELSLLKATPHLQPRPPPAALSQPVLPLAPSSSAPEGPAETDPEVTPQLSSPAPLCLTLQERLLAFERDRVTIPAAQVALAKQLAGDIALELQAYFRSKFPELPFGAFVPGGPLYDGLQAGAADHVRLLVPLVLEPGLWSLVPGVDTVARDPRCWAVRRTQLEFCPRGSSPWDRFLVGGYLSSRVLLELLRKALAASVNWPAIGSLLGCLIRPSMASEELLLEVQHERLELTVAVLVAVPGVDADDRLLLAWPLEGLAGNLWLQDLYPVEAARLRALDDHDAGTRRRLLLLLCAVCRGCSALGQLGRGHLTQVVLRLGEDNVDWTEEALGERFLQALELLIGSLEQASLPCHFNPSVNLFSSLREEEIDDIGYALYSGLQEPEGLL
binding [2]: binds
binding [1]: binds

B5: endogenous dysbindin-1C of mouse hippocampus (protein, UniProt Q91WZ8-3 1-271)
chain: T1 sequence
binding [11]: binds

Further lines, results first:

binding [2]: binds
binding [1]: binds
Molecule: Mid51 (yeast two-hybrid fusion) (from UniProt Q9NQG6 1-463)

binding (HA-tagged dysbindin-1C [3]): binds
binding (HA-tagged dysbindin-1C [4]): binds
binding (HA-tagged dysbindin-1A): no binding
Molecule: YFP-Drp1 (from UniProt O00429 1-736)

binding [5]: no binding
binding [6]: binds
binding [7]: binds
Molecule: endogenous Drp1 of cultured hippocampal neurons (from UniProt O35303 1-755)

binding [8]: binds
Molecule: endogenous Drp1 of mouse hippocampus (from UniProt Q8K1M6 1-736)

binding (HA-tagged dysbindin-1C [9]): no binding
B1: mitochondrial fission factor (Mff), in HEK-293 cells (protein, UniProt Q9GZY8 1-342)
chain: B2 chain

binding (HA-tagged dysbindin-1C [9]): binds
binding [10]: binds
B4: mitochondrial dynamics protein of 49 kDa (Mid49), in HEK-293 cells (protein, UniProt Q96C03 1-454)
chain: B3 chain

Reference: paper PMC8364574
